# Measured values as given in PMC4336329 (PLoS ONE, 2015).
# The campaign covered roughly 310,000 compounds. About 2,200 (0.71%) showed an effect of 50% or more. Effects have a minus sign here. This is one part of the list.
# Biological target: human ether-à-go-go-related gene (hERG) potassium channel (human, UniProt Q12809)
# Assay: primary screen, population patch clamp on CHO cells stably expressing hERG
# Chain of human ether-à-go-go-related gene (hERG) potassium channel (Q12809 whole entry, looked up): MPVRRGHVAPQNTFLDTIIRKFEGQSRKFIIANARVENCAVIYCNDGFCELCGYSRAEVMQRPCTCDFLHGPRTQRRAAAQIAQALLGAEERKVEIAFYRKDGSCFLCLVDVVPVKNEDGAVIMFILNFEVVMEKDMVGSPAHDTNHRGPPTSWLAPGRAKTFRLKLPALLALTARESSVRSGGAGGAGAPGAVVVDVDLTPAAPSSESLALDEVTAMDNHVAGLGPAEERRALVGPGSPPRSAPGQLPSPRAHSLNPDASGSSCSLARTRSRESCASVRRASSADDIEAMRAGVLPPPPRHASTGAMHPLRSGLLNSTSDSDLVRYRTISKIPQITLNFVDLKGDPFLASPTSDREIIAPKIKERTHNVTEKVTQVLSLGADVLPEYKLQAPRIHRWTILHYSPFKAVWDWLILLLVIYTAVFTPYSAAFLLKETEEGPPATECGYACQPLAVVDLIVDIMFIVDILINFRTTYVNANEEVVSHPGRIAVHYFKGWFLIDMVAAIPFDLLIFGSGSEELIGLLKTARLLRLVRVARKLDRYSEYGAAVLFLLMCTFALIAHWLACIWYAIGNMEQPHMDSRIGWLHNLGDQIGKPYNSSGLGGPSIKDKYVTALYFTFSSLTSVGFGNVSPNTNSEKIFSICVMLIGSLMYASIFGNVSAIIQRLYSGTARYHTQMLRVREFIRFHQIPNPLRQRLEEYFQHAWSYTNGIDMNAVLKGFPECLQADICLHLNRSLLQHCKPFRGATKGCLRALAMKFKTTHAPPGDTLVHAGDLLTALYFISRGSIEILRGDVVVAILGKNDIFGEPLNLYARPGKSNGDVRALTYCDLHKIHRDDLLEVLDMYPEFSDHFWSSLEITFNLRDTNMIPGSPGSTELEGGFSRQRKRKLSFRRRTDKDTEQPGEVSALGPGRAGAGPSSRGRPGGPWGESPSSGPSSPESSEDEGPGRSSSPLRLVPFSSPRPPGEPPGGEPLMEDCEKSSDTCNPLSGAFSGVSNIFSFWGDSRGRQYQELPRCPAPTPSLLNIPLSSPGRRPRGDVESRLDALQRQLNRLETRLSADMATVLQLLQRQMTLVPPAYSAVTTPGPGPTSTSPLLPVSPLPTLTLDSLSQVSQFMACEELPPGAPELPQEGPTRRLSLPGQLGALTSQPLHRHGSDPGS
row,Compound,"hERG current change (%, negative = inhibition) at 1uM"
1,Cc1cc(Oc2nnnn2-c2ccccc2)ccc1Cl,0.766%
2,CCN(Cc1ccc2c(c1)OCO2)C(=O)/C=C/c1cccc(Br)c1,17.8%
3,Cc1cccc(C(=O)Nc2nc(C)c(C(=O)Nc3ccc4c(c3)CCC4)s2)c1,17.9%
4,COc1ccc(NC(=O)N2CCC(CO)(CC3CCCCO3)CC2)c(OC)c1 (stereo not shown),9.96%
5,COc1ccc2c(c1)S(=O)(=O)c1ccccc1N2,12.3%
6,Cc1ccc(S(=O)(=O)N2CCN(Cc3ccccc3C(F)(F)F)CC2)cc1,5.56%
7,Cc1cc(NS(=O)(=O)c2ccc(Nc3nc(-c4ccc(O)cc4)cs3)cc2)no1,9.78%
8,O=C(O)c1cccc(COc2cccc3ccccc23)c1,7.07%
9,COc1ccc2c(c1)C(c1ccccc1)NC(=O)C2 (stereo not shown),6.67%
10,CCOC(=O)c1c(NC(=O)CC2Nc3cc(C)c(C)cc3NC2=O)sc(C)c1C (stereo not shown),2.74%
11,O=C1CC(=O)N(c2cccc(C(F)(F)F)c2)C(=O)N1,18.7%
12,c1ccc(-c2cc3c(nn2)CCc2nonc2-3)cc1,12.1%
13,O=C(NC(=S)Nc1ccc2c(c1)C(=O)c1ccccc1C2=O)c1ccc(F)cc1,15.7%
14,Cc1ccc(/C=C/C(=O)c2ccccc2O)cc1,16.9%
15,CCCCC1=CC2=CC(=O)C(C)(OC(=O)CC)C(=O)C2=CN1c1ccccc1 (stereo not shown),11.2%
16,CCCOC(=O)NC1CCS(=O)(=O)C1 (stereo not shown),16.3%
17,Cc1c(C(=O)NCCc2ccccc2)oc2ccccc12,13%
18,CCc1nnc2n1N=C(c1ccc([N+](=O)[O-])cc1)CS2,-7.51%
19,COc1ccc2c(c1OC)C(=O)OC2CC(=O)c1ccc(N(C)C)cc1 (stereo not shown),2.12%
20,CCN(CCn1cccn1)C(=O)C1CCC(=O)N(CCN2CCOCC2)C1 (stereo not shown),13.2%
21,O=C(Nc1ccccc1)C1(c2ccccc2)CC1(Cl)Cl (stereo not shown),7.93%
22,C/C(=N/NS(=O)(=O)c1cccc([N+](=O)[O-])c1)c1ccc2c(c1)OCO2,14.4%
23,c1ccc(-c2nc(N3CCOCC3)c3ccccc3n2)nc1,5.13%
24,CC1CCc2cc(F)ccc2N1C(=O)c1ccc2c(c1)OCO2 (stereo not shown),5.72%
25,N#CCSc1nc2ccccc2c2nc3ccccc3n12,8.73%
26,O=C(COc1ccc2ccccc2c1)N1c2ccccc2Sc2ccccc21,4.35%
27,COc1ccc(C)cc1N1C(=N)/C(=C2/Nc3ccccc3S2)C(c2ccccc2)C1=O (stereo not shown),13.3%
28,N#Cc1ccccc1OCC(=O)OCC(=O)N1CCN(C(=O)c2ccco2)CC1,10.3%

row,Compound,"hERG current change (%, negative = inhibition) at 1uM"
1,CC(C)C[C@@]12C(=O)N(c3cccc(Cl)c3)C(=O)N1[C@H](c1ccc(Br)cc1)[C@@H]1C(=O)N(C(C)(C)C)C(=O)[C@@H]12,17.6%
2,CC1(c2ccc(OC(F)F)cc2)NC(=O)N(CC(=O)Nc2ccc(F)cc2)C1=O (stereo not shown),-15.6%
3,Clc1ccccc1Nc1nc(-c2cccnc2)cs1,8.71%
4,O=C(CCN=C1NS(=O)(=O)c2ccccc21)OCC(=O)c1ccccc1Cl,-0.761%
5,COc1cccc(-c2cc(C(F)(F)F)n3ncc(C(=O)O)c3n2)c1,12.7%
6,CCOC(=O)Cn1c(C)cc(COC)c(C#N)c1=O,10.8%
7,COc1ccc2c(c1)C1NC(=S)N[C@@](C)(O2)C1C(=O)Nc1ccccc1 (stereo partly shown),3.32%
8,O=C(NCCCCc1ccccc1)Nc1ccc(F)cc1,10.4%
9,CCc1ccc(OCC(=O)N(Cc2cccs2)C2CCS(=O)(=O)C2)cc1 (stereo not shown),2.68%
10,CCc1csc(CCNC(=O)C2CCC(=O)N(Cc3cccc(C(F)(F)F)c3)C2)n1 (stereo not shown),10.8%
11,Cc1ccc(S(=O)(=O)N2CCN(C(=O)Cc3ccccc3)CC2)cc1C,8.01%
12,Cc1ccc2c(c1)c1nnc(SCC(=O)N3CCN(c4ccc(F)cc4)CC3)nc1n2CC(=O)O,-11.7%
13,COc1ccc(C2=NS(=O)(=O)N(C)C(C(=O)N3CCC4(CC3)OCCO4)=C2)cc1OC,16.8%
14,N#C/C(=C/c1ccc(N2CCOCC2)o1)C(=O)N1CCOCC1,21%
15,Cc1ccc(/C=N/NC(=O)c2ccc(NC(=O)c3ccccc3Cl)cc2)o1,9.83%
16,CCN(CC)c1ccc(/C=N/NC(=O)c2cccc(N3CCCC3=O)c2)cc1,-3.06%
17,Cc1cc2nc(-c3cccc(NC(=O)c4ccc(Br)o4)c3C)oc2cc1C,3.81%
18,COc1ccccc1NC(=O)C1CCCN(S(=O)(=O)c2ccc(-n3cnnn3)cc2)C1 (stereo not shown),-23.5%
19,Cc1ccc(OCC(=O)Nc2ccc(N3CCN(S(C)(=O)=O)CC3)cc2)cc1C,10.8%
20,COc1ccc(NC(=O)COc2ccc(-c3nn(C)c(=O)c4ccccc34)cc2)cc1,11.9%
21,O=C(Nc1cc(S(=O)(=O)N2CCOCC2)ccc1Cl)C1CCC1,5.68%
22,Cc1ccccc1CS(=O)(=O)Cc1ccc(C(=O)NC2CCCCC2)o1,7.45%
23,CCC(C)c1ccc(NC(=S)N2CCCC2)cc1 (stereo not shown),9.73%
24,CC(C)C(=O)Nc1cccc(C(=O)Nc2ccc(S(=O)(=O)N3CCOCC3)cc2)c1,15.2%
25,CCCC(O)(c1ccc(Br)cc1)C(CN1CCOCC1)c1ccc(Cl)cc1.Cl (stereo not shown),7.9%
26,O=C(CNC(=O)c1cc(S(=O)(=O)N2CCCCC2)ccc1N1CCOCC1)Nc1ccc(F)c(F)c1,24%
27,CC1CCN(C(=O)Cn2c(=O)n(Cc3ccco3)c(=O)c3sccc32)CC1,10.1%
